Laboratory results published in the supplement of paper PMC3334620.
In all, about 33,000 sequences were measured (“E-score (-0.5 to 0.5)”: median about -0.032, highest 2% from about 0.36 on). The list shows a part of the results.

The sequences below were run against T1, Sko1 (UniProt Q02100) (assay: PBM E-score (8-mer binding enrichment) (E-score (-0.5 to 0.5)); higher = stronger / more preferred TF binding; most listed sequences are background and not binding sites). Details: protein concentration: 200 nM; construct: GST-full length.
T1 sequence: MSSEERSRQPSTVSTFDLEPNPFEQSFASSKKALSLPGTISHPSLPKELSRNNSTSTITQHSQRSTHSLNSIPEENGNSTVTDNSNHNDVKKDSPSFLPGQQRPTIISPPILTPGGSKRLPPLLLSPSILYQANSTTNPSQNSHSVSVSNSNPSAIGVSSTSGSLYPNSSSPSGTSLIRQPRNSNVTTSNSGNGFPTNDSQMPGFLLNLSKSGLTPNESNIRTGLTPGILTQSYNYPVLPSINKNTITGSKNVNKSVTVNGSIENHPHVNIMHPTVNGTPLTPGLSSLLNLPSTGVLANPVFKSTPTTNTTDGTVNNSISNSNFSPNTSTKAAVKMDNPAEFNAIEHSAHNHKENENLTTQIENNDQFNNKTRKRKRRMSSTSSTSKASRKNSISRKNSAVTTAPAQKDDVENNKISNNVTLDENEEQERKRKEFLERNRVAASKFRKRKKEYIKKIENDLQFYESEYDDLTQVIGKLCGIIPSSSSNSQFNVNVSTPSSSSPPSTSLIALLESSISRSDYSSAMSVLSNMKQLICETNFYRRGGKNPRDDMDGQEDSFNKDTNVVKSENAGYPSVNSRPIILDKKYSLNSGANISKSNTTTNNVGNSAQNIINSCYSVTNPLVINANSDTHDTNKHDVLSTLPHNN
How it was run: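 For each ungapped eight-base word taken together with its reverse complement, the Universal PBM Analysis Suite assigned an E-score. Binding data came from GST-tagged yeast transcription factors, applied at about 100-200 nM, on universal all-10-mer Agilent arrays made double-stranded by primer extension. Fluorescent anti-GST marked bound protein, and scans were normalised with masliner.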

Row | Sequence | PBM E-score
1 | TAGGTGCA | 0.00381
2 | ACACAGCT | -0.139
3 | CCAACAAA | 0.0828
4 | GAAGAACA | 0.0683
5 | ACAGGAAG | -0.149
6 | AAACCTAA | 0.103
7 | GCTAACCC | -0.201
8 | CCCAGCAA | -0.111
9 | GTCAAGGA | 0.0614
10 | CGAGAGGA | -0.042
11 | ATAGCTAG | -0.118
12 | CGACGGTA | 0.017
13 | CATTGCAG | 0.0387
14 | AGTTGACC | -0.231
15 | CCAGAGAC | -0.251
16 | GATTTCTA | 0.0392
17 | ACGAATGG | 0.209
18 | AATGCGCT | 0.0446
19 | CGCAACCA | 0.112
20 | CAACGCTA | -0.0907
21 | CTTTGGGC | -0.121
22 | GATGTAGA | 0.144
23 | ATTCGGAC | 0.0799
24 | GGCACCAA | -0.24
25 | ATCGGTCG | -0.0591

Row | Sequence | PBM E-score
26 | AACGCAAC | 0.289
27 | ACTAATAT | 0.262
28 | AAAGCTCG | -0.0371
29 | GTAAATGA | 0.208
30 | GGTCTACA | 0.0302
31 | AATTACAT | 0.375
32 | CGGGACAA | -0.129
33 | ACATGAAA | -0.00331
34 | CATATGGC | 0.0838
35 | CAGATGGC | 0.0972
36 | GGTCACTA | 0.0129
37 | ATTTGAGG | -0.0685
38 | GTTGGTGA | 0.143
39 | CAGGGAAC | -0.0438
40 | AATACGCT | 0.186
41 | AATTCAGT | 0.0335
42 | AAGAACCA | 0.0903
43 | AAATGTGC | -0.0126
44 | GGCTCCGA | -0.311
45 | TGCGACCA | 0.0795
46 | CGTGCAGA | 0.0811
47 | CCGTGTGA | -0.0471
48 | AATTAAGG | -0.0906
49 | CATTCGAG | 0.0237
50 | TCTCGGAA | 0.0601

Row | Sequence | PBM E-score
51 | AGCCAAAG | -0.243
52 | AGCGTGCG | 0.00059
53 | CCATATAA | 0.0576
54 | CCGCCCTA | -0.125
55 | AATACGAA | 0.324
56 | GTAGAAGA | -0.131
57 | CATTTAGC | 0.00024
58 | CACAACCC | -0.0859
59 | GAAGAGAC | 0.0544
60 | AACAGCTA | -0.0803
61 | CACATAAG | 0.147
62 | GCAAAGGC | -0.212
63 | ATTAGAAA | 0.176
64 | CACCGGGA | -0.25
65 | AGTATACT | -0.0304
66 | AGCCAACT | -0.128
67 | GAGCGTAA | 0.218
68 | ACGCCGAT | -0.0314
69 | GGAAGACC | -0.407
70 | AACTGATT | 0.0438
71 | GACGAGTC | 0.0596
72 | CCGTTACG | 0.354
73 | AGCGTAAC | 0.266
74 | AAAGTTGG | 0.0645
75 | AAAATGAT | 0.246

Row | Sequence | PBM E-score
76 | TAATGATA | 0.354
77 | GGTGCCAC | -0.146
78 | CGCTGCGA | -0.0517
79 | CTTTCCCA | -0.154
80 | ACGCTCTA | -0.0609
81 | CTCCGTCA | 0.134
82 | AGTGGGTC | -0.183
83 | AGCGCAAG | -0.154
84 | CCTGGCCC | -0.327
85 | CTCAATCA | 0.0356
86 | AGGTTGCC | -0.248
87 | AATCTGCT | 0.0911
88 | AGGCACCT | -0.325
89 | CTAAGTAA | 0.0516
90 | ACGTAACG | 0.469
91 | GACCGTGA | -0.117
92 | AAAGCAAA | 0.128
93 | CACCCATC | -0.0712
94 | AAACAGGT | -0.126
95 | CAATTAAG | 0.0356
96 | CTGTGGCC | -0.196
97 | AGCTGTTC | -0.196
98 | AAGTTCAA | -0.0679
99 | AATCTCCC | -0.0971
100 | GAGCCAAA | -0.187

Row | Sequence | PBM E-score
101 | TCAACTCA | 0.068
102 | AATCAGGT | 0.113
103 | AGCTACCA | -0.115
104 | GATTTGCC | -0.0198
105 | CTATAAAG | 0.0758
106 | CCCTTTGA | -0.306
107 | AAACCTAG | -0.0586
108 | GCAGCCCA | -0.109
109 | ATATAACC | -0.0412
110 | GCCGCACA | -0.172
111 | AGTTTGGA | 0.108
112 | AAAATATA | 0.177
113 | ATGCAAGG | -0.304
114 | GCCAGGAC | -0.156
115 | TAGGGACA | -0.256
116 | GGAAGAAA | -0.113
117 | AAGAAGGG | -0.151
118 | GAAGCGCA | -0.172
119 | GCCTCTAC | -0.189
120 | GGTAATAC | 0.178
121 | ATAAGTTA | 0.201
122 | CCAGCAGC | -0.227
123 | AGGGTCAA | -0.0744
124 | ACCGATAA | 0.0085
125 | AGCCCTTA | 0.0228

Row | Sequence | PBM E-score
126 | GTCGTAAC | 0.267
127 | CTGTAGTC | -0.165
128 | ACTAGCAG | -0.137
129 | AGCTCTAC | -0.106
130 | GAATTCCC | -0.162
131 | ATACTAAG | -0.00391
132 | CCTTGCCA | -0.197
133 | ATGCTGCC | -0.0786
134 | CCGAGAAA | 0.0233
135 | CTCAGTCC | 0.0298
136 | CAACCATA | 0.134
137 | CGCGTGCA | 0.0852
138 | CGAATCAA | 0.209
139 | CCGTGTAG | -0.181
140 | GCGTAAGC | 0.294
141 | CAGCTATA | -0.116
142 | ATGCATAG | 0.00265
143 | CGCTAAGA | 0.0374
144 | GGGAGATA | -0.163
145 | TCATCGAA | 0.221
146 | AGTATGAT | 0.286
147 | CCGATCGC | -0.0636
148 | AGAGAATC | 0.0604
149 | CGAACACA | 0.00171
150 | GGCGAGCA | -0.182

Row | Sequence | PBM E-score
151 | CCGGTGAG | -0.236
152 | GTCTAAAA | -0.0295
153 | CGCGGTTA | -0.0722
154 | ACGTTTTG | 0.393
155 | GGATTGCA | -0.193
156 | AAAGGTGA | -0.09
157 | TACATACA | 0.281
158 | GATGATAC | 0.186
159 | ATAAACGG | 0.0318
160 | AGAAAAGG | -0.169
161 | GCTAATAA | 0.00644
162 | CACCCCTG | -0.201
163 | ACCGTAGG | -0.28
164 | GCCCGCGC | -0.176
165 | AATCGTCA | 0.423
166 | CAGGCAGG | -0.00745
167 | AATCGTGA | 0.0972
168 | CCTATCCG | -0.128
169 | CGCGTTAA | 0.0132
170 | CGGCGACG | 0.0694
171 | CCTGTACG | 0.117
172 | AGTGTCGG | -0.263
